Read counts are not given, so values of variants with three or more changes are uncertain.
B1: LINE1-full (parent)
chain: UACGUAGGUGGUUUUCCCCUGAUAGUGCUAAGGGGGCCUGGAAGUUUGGACUGGGCAGAGCUCAACACAGCGUGGCAAAGUGGCUGUGGCUAGACUGCCUCUCUGGAUUCCUCGUCACUCAGCAGGGCAUCUCUGAGAGAAAUGCC

Variants of: B1
Assay: self-cleavage, relative activity (ratio to wild type); higher = more cleavage; in vitro, sequencing; the parent is a self-cleaving ribozyme
A69U U73A A94U A138G showed a self-cleavage of 0.
Variant A43G U132C U134A has a self-cleavage of 0.65.
Work on G35A U39G U104A U112A C123U A136G yielded a self-cleavage of 1.2.
In the case of A59G A79G C101A U104A U109C, the self-cleavage is reported as 0.05.
Variant C63U G72A U132C has a self-cleavage of 0.38.
U13C U47C U62C U81C A124U showed a self-cleavage of 0.
In the case of A24U U39C U91G U143A, the self-cleavage is reported as 0.
U13C U15A A77G A79G U109C gave a self-cleavage of 0.77.
U12G A107G U109C C113U showed a self-cleavage of 0.82.
Variant U13C U52C G53U A121G has a self-cleavage of 1.3.
For G8A G72A A78G U109C A117U U132C, the self-cleavage was 1.85.
In the case of U12C U14A A77U U119C, the self-cleavage is reported as 2.38.
For U39C U62C A92U, the self-cleavage was 0.17.
Variant U12A A57U U91C has a self-cleavage of 0.11.
In the case of U100C G106A A140G, the self-cleavage is reported as 2.32.
With U20C A107U A142G the self-cleavage was 1.52.
For U29C U73A U108C A124G, the self-cleavage was 1.15.
For A64U U130C A141U, the self-cleavage was 0.5.
Work on A59C A107U A136U yielded a self-cleavage of 1.39.
With G27A A78U A124G the self-cleavage was 0.84.
Variant C37U A65U U108C C123U U143G has a self-cleavage of 0.05.
For A79U U108C A140G, the self-cleavage was 1.53.
A64U C113A A129G U132C showed a self-cleavage of 0.42.
Work on U12A A64U A142G yielded a self-cleavage of 0.56.
Work on U12C U14A U23C U73A yielded a self-cleavage of 1.2.
Work on G89A U130C A140G yielded a self-cleavage of 0.04.
G40A U62C U81A A94U gave a self-cleavage of 0.02.
For A79U U87C U104C, the self-cleavage was 0.16.
For U62C G89U A136G, the self-cleavage was 0.04.
In the case of G4A U52C A69G, the self-cleavage is reported as 0.
In the case of G106U A117G U130C, the self-cleavage is reported as 1.29.
U9C U45G A50U G58A gave a self-cleavage of 0.08.
In the case of C68U C98U A140G, the self-cleavage is reported as 0.04.
Variant A42G A57G U109A has a self-cleavage of 0.47.
A57G A78G U134C showed a self-cleavage of 0.59.
In the case of U20A U62C A64G U96C G105A, the self-cleavage is reported as 0.23.
With U23A A30G A31C U102C C113G the self-cleavage was 0.74.
For U73A U100C U130C A140G, the self-cleavage was 2.1.
U12A U47C U130A U132C gave a self-cleavage of 2.46.
Variant U100C A141G U143G has a self-cleavage of 2.02.
With U9A G53A A64U U104C the self-cleavage was 0.65.
With U14C U39C G54A C98G A124U the self-cleavage was 0.17.
For U109A U115C G127U, the self-cleavage was 1.47.
Work on A2G A6G A22G U119C U134C yielded a self-cleavage of 0.
A50U U52C U132C gave a self-cleavage of 0.
C38U A57G A64G U104A showed a self-cleavage of 0.09.
Variant A24U G41A A42U U104C has a self-cleavage of 1.43.
For G21U U45A U134C, the self-cleavage was 1.23.
A42U G137U A138U gave a self-cleavage of 0.96.
U29C U134C A138G C146U gave a self-cleavage of 1.28.
Work on U5C A79G G97A A142G yielded a self-cleavage of 0.22.
With A77G A79G G82A the self-cleavage was 1.5.
In the case of U14A U52C G60A, the self-cleavage is reported as 0.06.
Variant U9C A30U A140G has a self-cleavage of 0.89.
A59G U73A A79G C133U gave a self-cleavage of 0.
Work on U1C U12C A136U yielded a self-cleavage of 0.52.
Work on G54A G72A U115C yielded a self-cleavage of 0.56.
Work on U1C U12G A30G U112A yielded a self-cleavage of 0.5.
Work on A79G U91C C101U A141U yielded a self-cleavage of 0.68.
For U85C A117U G126U A141G, the self-cleavage was 0.1.
With U12C U102A A136G the self-cleavage was 0.62.
In the case of A67G U81A U96A, the self-cleavage is reported as 0.09.
With U20C A22U U62C A121G C133U the self-cleavage was 0.17.
In the case of C19U U119C C145U, the self-cleavage is reported as 1.91.
Work on U20G A22G A79G U130C yielded a self-cleavage of 0.97.
Work on A2U A6U U73C yielded a self-cleavage of 0.26.
With U12C A57G G139A the self-cleavage was 0.73.
In the case of A92U U102C U109A A138U A141G, the self-cleavage is reported as 0.58.
Variant G21U A69U U87C U100C has a self-cleavage of 0.
U13C U20C U45C C71A A117G showed a self-cleavage of 0.19.
In the case of U12C U13A U14C U45C U96C, the self-cleavage is reported as 0.
Variant U1C G4C U12G A30G U100A has a self-cleavage of 0.86.
With U85C U102C U104A G114A the self-cleavage was 0.08.
With U14C C16U A69G A94G the self-cleavage was 0.
With G11A U15C C123U the self-cleavage was 1.57.
With U9C U45C U119A A138U the self-cleavage was 1.76.
Variant A124C A140G A141G has a self-cleavage of 1.51.
Variant U5C U20G U52A A67U A69U has a self-cleavage of 0.
In the case of A2G C19A U143A, the self-cleavage is reported as 0.52.
U52A A57U A67G U109A gave a self-cleavage of 0.03.
Variant A69U U91C U112A U119A U143C has a self-cleavage of 0.
With U14C A78U U100C C123U the self-cleavage was 2.9.
C3U A42G A77U gave a self-cleavage of 1.02.

— the RNAGym collection of RNA variant scans (doi:10.7554/elife.90254)
